# Assay results: the supplement of paper PMC3334620
# In all, about 33,000 sequences were measured (“E-score (-0.5 to 0.5)”: median about -0.032, highest 2% from about 0.36 on). Some of the results follow.
# Target: T1, Sko1 (UniProt Q02100)
# T1 sequence: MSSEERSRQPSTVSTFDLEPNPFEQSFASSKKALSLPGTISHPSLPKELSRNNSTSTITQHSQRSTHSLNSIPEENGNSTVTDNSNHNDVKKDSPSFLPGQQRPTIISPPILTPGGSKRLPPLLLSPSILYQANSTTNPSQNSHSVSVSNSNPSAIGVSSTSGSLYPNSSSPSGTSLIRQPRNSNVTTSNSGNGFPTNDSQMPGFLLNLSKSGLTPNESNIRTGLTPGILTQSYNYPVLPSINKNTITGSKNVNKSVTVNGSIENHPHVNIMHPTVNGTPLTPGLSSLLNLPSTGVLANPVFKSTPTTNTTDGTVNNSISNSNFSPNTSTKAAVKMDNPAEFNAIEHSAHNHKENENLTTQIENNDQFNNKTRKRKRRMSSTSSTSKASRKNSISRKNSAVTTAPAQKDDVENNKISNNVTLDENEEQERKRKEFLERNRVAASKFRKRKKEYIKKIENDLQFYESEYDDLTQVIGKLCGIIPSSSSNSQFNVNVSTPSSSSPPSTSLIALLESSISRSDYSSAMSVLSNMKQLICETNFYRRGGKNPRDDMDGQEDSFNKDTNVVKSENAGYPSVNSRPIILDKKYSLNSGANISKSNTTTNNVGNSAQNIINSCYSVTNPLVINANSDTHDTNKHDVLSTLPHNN
# Assay: PBM E-score (8-mer binding enrichment) (E-score (-0.5 to 0.5)); higher = stronger / more preferred TF binding; most listed sequences are background and not binding sites
# Details: protein concentration: 200 nM; construct: GST-full length
# Procedure: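 Universal 'all 10-mer' protein binding microarrays (Agilent AMADID 015681) probed with GST-tagged S. cerevisiae TFs (full-length or DBD) made by in vitro transcription/translation (PURExpress), about 100-200 nM. Bound TF was detected with fluorescent anti-GST. Each ungapped 8-mer (which stands for itself and its reverse complement) is scored by the PBM enrichment score (E-score), a modified Wilcoxon-Mann-Whitney statistic from -0.5 to +0.5, computed with the Universal PBM Analysis Suite. Scale: above 0.35 generally sequence-specific binding.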
row,Sequence,PBM E-score
1,AGGGGATG,-0.0368
2,AGATGCCG,0.00796
3,AAGTAGGC,-0.0531
4,ACGATGGA,0.0944
5,CGGAACCA,-0.045
6,CGGCCCAA,-0.27
7,ATTGATGA,0.147
8,ACCGCGAG,-0.0548
9,TTAGTAAA,0.162
10,GACTAGCC,-0.311
11,TCTATAAA,0.282
12,CCCATGCA,0.0383
13,ACAACTAT,0.0583
14,CATCTTAC,0.228
15,AGCATAGG,-0.144
16,ACACTAGA,-0.0027
17,ATAGTCGA,0.184
18,CGGATATC,-0.00741
19,ACCTATCG,-0.0463
20,ATGGCTTA,0.0716
21,TTCACGAA,0.183
22,ACAAGGGG,-0.179
23,TACTTTAA,0.0617
24,AGGGCTTC,-0.127
25,ATCAAGAT,0.0875

row,Sequence,PBM E-score
1,GGCCGATA,0.0322
2,GCCATTAC,0.124
3,CAGGCCCC,-0.271
4,CATTCCGG,-0.327
5,CCAATATA,0.104
6,GCTATAGC,-0.168
7,CAGCAATA,-0.0584
8,CCCCAGTC,-0.262
9,AAGCTAGG,-0.198
10,GCCCTTTA,-0.273
11,GCTTGTTA,-0.0288
12,AATAAGCT,0.0887
13,ACCACCAT,0.00571
14,GATTTAAA,0.0288
15,CGTCTTGC,0.101
16,AGAATCCG,-0.0518
17,AATCTTCT,-0.078
18,TCGGGAGA,-0.177
19,ATGCCCCA,-0.19
20,CGACTAGC,-0.236
21,CTGTCTTA,0.00021
22,AGACACGG,-0.178
23,CAAGGAGG,-0.0002
24,AGCCGAGA,-0.279
25,GGCACCCC,-0.247

row,Sequence,PBM E-score
1,CTGCGAAG,0.00168
2,AACAGAGC,-0.146
3,CTGTGACA,0.169
4,ATCAGGAA,3e-05
5,CCGCTGCA,-0.0363
6,ATAGACGC,0.0915
7,AACATCTG,-0.0833
8,CAACAACC,-0.0035
9,AAGATCAT,0.0659
10,CTAAGTTA,0.101
11,CCTCTGAC,0.0928
12,CGAGCCAC,-0.171
13,TCCTCAGA,-0.146
14,CGCGCAAG,0.0759
15,ACATTTTG,0.127
16,GTACGCTA,0.232
17,ACAGAAGA,0.174
18,CCGAATAA,0.0785
19,CCACAAAG,-0.101
20,ACCCACAT,-0.114
21,ACGGTGTG,-0.226
22,CGTCTCCC,-0.1
23,AACACGCA,0.285
24,AGTACAAT,0.177
25,AGACTTGA,0.0227

row,Sequence,PBM E-score
1,GCATGCGC,0.182
2,TGTTGGAA,0.0481
3,CATGCCCC,-0.149
4,GGCTCAAC,-0.172
5,TGTGCAAA,0.182
6,CATATCTA,0.138
7,CCGAAATC,0.0145
8,CCCTTACG,0.326
9,CGTCTTAC,0.224
10,AGCGGGTA,-0.167
11,AGACGCAA,0.258
12,GCAGAGGC,-0.254
13,AAATAACG,0.306
14,ATCGCCTG,-0.268
15,CGGGCGAG,-0.218
16,GGGCAGAA,-0.0113
17,GGATTCTA,-0.0972
18,CACTTTAG,-0.0915
19,ATTGAGAC,0.0754
20,GGATGTAA,0.134
21,CTCGTAGC,-0.0204
22,ATCTGTTC,0.00362
23,AGCAGATC,-0.0181
24,ATATTTGC,0.206
25,ATCGCAGG,-0.143

row,Sequence,PBM E-score
1,GAGCGTGC,-0.0637
2,GCCAGCAC,-0.199
3,GTTAGGAA,-0.0319
4,TCCGGAAA,-0.0446
5,CGCACCCG,-0.167
6,TCGACGAA,0.157
7,ATGCCCGC,-0.227
8,CACATGAG,-0.12
9,TAGACGCA,0.175
10,ACTTAAAC,0.0662
11,CAACTACC,-0.0488
12,CGAGCGCA,0.0373
13,AGCGAGGA,-0.147
14,CCGGGCGC,-0.306
15,CATGAAAG,0.00024
16,CATACGGA,-0.00572
17,AGGGCAAA,-0.119
18,ATGTGTTC,-0.0326
19,GCTGCAAC,-0.13
20,GCGCAAAC,0.101
21,CCGGGCGA,-0.294
22,AGGACGGA,-0.156
23,GCATAATA,0.263
24,AAGCAGGG,-0.173
25,ATGACACG,0.245

row,Sequence,PBM E-score
1,AAACCGAG,-0.175
2,AGCGTCGC,-0.0959
3,ACAATTTG,0.0263
4,GGTGGGGA,-0.0645
5,AAACTGTA,0.058
6,CACTAAAC,0.0741
7,AAACGGCG,-0.0793
8,AGTGTAAT,0.0179
9,AAATATAA,0.156
10,CCACGAGG,-0.196
11,CTGTCCAC,-0.206
12,ACTACAGC,-0.225
13,GGGCTGAA,-0.0664
14,ATCGATTC,-0.0207
15,CGTTGCCA,0.0742
16,CACACACG,0.204
17,AGAGATAA,0.04
18,CGTGGACC,-0.193
19,AGTTTTTC,0.0954
20,AACGCAGA,0.00294
21,ATCGGCTG,-0.141
22,GTGTCCCA,-0.0921
23,GGAGGCAA,-0.309
24,CAGCGAAC,-0.0146
25,AGGTCGAG,-0.275

row,Sequence,PBM E-score
1,GCGCAATA,0.0795
2,ATCAGGGG,-0.332
3,GGCACATA,0.0958
4,AGAAGGGC,-0.225
5,GTAATATA,0.374
6,CGGGCACG,-0.0149
7,AACCTTCT,-0.298
8,ACGTCGCA,0.323
9,ACTGGGCA,-0.203
10,GTATGCTA,0.194
11,CCGCTAGG,-0.218
12,CACCACAA,0.0375
13,AATTTCAA,0.153
14,ACAAACCT,-0.0212
15,CTCGTAAC,0.253
16,GTAAGAAC,0.249
17,ATATAAGG,0.0146
18,TATCACGA,0.166
19,CCATCAGG,-0.22
20,CGGACACC,-0.19
21,TAGTCTGA,0.0141
22,AGCGGAGC,-0.27
23,GTCCGACA,0.0675
24,GGGCGTTA,0.0396
25,GGCAAATA,0.125

row,Sequence,PBM E-score
1,CATCGGGA,0.0116
2,ATGATTTA,0.178
3,ACACCGAC,-0.0294
4,GTCCCATA,-0.072
5,CAGGAGGG,-0.101
6,CCGCCGCA,-0.145
7,CGTCCACA,0.0327
8,CTCTCATC,-0.0637
9,CCCGGATA,-0.207
10,CGGATCAA,-0.0256
11,AAGATGTA,0.206
12,CATAATTA,0.304
13,CTCCGAGC,-0.157
14,ACGGGTTC,-0.296
15,ACCCTAAT,-0.0571
16,GGCTCTAC,-0.201
17,TAAGACAA,0.15
18,GCAACCAA,0.0415
19,CTTCCCAC,-0.0483
20,ATCGACGG,-0.226
21,GACCCTCC,-0.292
22,TCAACGCA,0.195
23,GGAACACC,-0.253
24,AGAACTAA,0.0418
25,GACGGTGA,-0.0192

row,Sequence,PBM E-score
1,CCATTCGA,0.0551
2,CGTAGAGC,0.116
3,AAGTAGCC,-0.333
4,GACGTGGA,0.23
5,AGAGAGAC,-0.133
6,GCGAATTA,0.232
7,ACAATTGG,-0.186
8,GAGCTTGC,-0.0565
9,AACATTTC,0.129
10,CCGACTCC,-0.294
11,TAAAAGGA,-0.088
12,CTTGCGTC,0.27
13,GGTAATCA,0.0412
14,AGTTTACA,0.17
15,AAATCCAT,0.212
16,AGCTACAG,-0.278
17,ATGTGAAT,0.162
18,CCAAGCGC,-0.147
19,AAAGAAGC,-0.0191
